According to the supplement of paper PMC8728848:
The other results are listed elsewhere or left out.

Key:
Test in all cases: glycan array binding signal (z-score within array); higher = stronger binding
Settings in all cases: glycan notation: IUPAC condensed, linker removed
[1] = biological target: Fuc(a1-2)Gal
In short: (§1)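 Negative Z-scores can be read as non-binding. The Z-score is calculated within each array and then averaged across arrays of one protein sequence at different concentrations or buffers and across linkers. Arrays, 3228 in all, were curated from the Consortium for Functional Glycomics database and kept only where the protein sequence was available.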

[2] = biological target: Fuc(a1-2)Gal(b1-3)GalNAc
In short: as §1

[3] = biological target: Fuc(a1-2)Gal(b1-3)GalNAc(a1-3)[Fuc(a1-2)]Gal(b1-4)Glc
In short: as §1

[4] = biological target: Fuc(a1-2)Gal(b1-3)GalNAc(a1-3)[Fuc(a1-2)]Gal(b1-4)GlcNAc
In short: as §1

[5] = biological target: Fuc(a1-2)Gal(b1-3)GalNAc(b1-3)Gal
In short: as §1

[6] = biological target: Fuc(a1-2)Gal(b1-3)GalNAc(b1-3)Gal(a1-4)Gal(b1-4)Glc
In short: as §1

[7] = biological target: Fuc(a1-2)Gal(b1-3)GalNAc(b1-4)[Neu5Ac(a2-3)]Gal(b1-4)Glc
In short: as §1

[8] = biological target: Fuc(a1-2)Gal(b1-3)GlcNAc
In short: as §1

[9] = biological target: Fuc(a1-2)Gal(b1-3)GlcNAc(b1-2)Man(a1-3)[Fuc(a1-2)Gal(b1-3)GlcNAc(b1-2)Man(a1-6)]Man(b1-4)GlcNAc(b1-4)GlcNAc
In short: as §1

[10] = biological target: Fuc(a1-2)Gal(b1-3)GlcNAc(b1-2)Man(a1-3)[Fuc(a1-2)Gal(b1-3)GlcNAc(b1-2)Man(a1-6)]Man(b1-4)GlcNAc(b1-4)[Fuc(a1-6)]GlcNAc
In short: as §1

[11] = biological target: Fuc(a1-2)Gal(b1-3)GlcNAc(b1-3)Gal(b1-4)Glc
In short: as §1

[12] = biological target: Fuc(a1-2)Gal(b1-3)GlcNAc(b1-3)GalNAc
In short: as §1

[13] = biological target: Fuc(a1-2)Gal(b1-3)GlcNAc(b1-3)[Fuc(a1-2)Gal(b1-3)GlcNAc(b1-6)]GalNAc
In short: as §1

[14] = biological target: Fuc(a1-2)Gal(b1-3)GlcNAc(b1-3)[Gal(b1-4)GlcNAc(b1-6)]Gal(b1-4)Glc
In short: as §1

[15] = biological target: Fuc(a1-2)Gal(b1-3)GlcNAc(b1-3)[Neu5Ac(a2-6)Gal(b1-4)GlcNAc(b1-6)]Gal(b1-4)Glc
In short: as §1

[16] = biological target: Fuc(a1-2)Gal(b1-3)GlcNAc6S
In short: as §1

[17] = biological target: Fuc(a1-2)Gal(b1-3)[Fuc(a1-4)]GlcNAc
In short: as §1

[18] = biological target: Fuc(a1-2)Gal(b1-3)[Fuc(a1-4)]GlcNAc(b1-2)Man(a1-3)[Fuc(a1-2)Gal(b1-3)[Fuc(a1-4)]GlcNAc(b1-2)Man(a1-3)]Man(b1-4)GlcNAc(b1-4)GlcNAc
In short: as §1

[19] = biological target: Fuc(a1-2)Gal(b1-3)[Fuc(a1-4)]GlcNAc(b1-2)Man(a1-3)[Fuc(a1-2)Gal(b1-3)[Fuc(a1-4)]GlcNAc(b1-2)Man(a1-6)]Man(b1-4)GlcNAc(b1-4)[Fuc(a1-6)]GlcNAc(b1-4)[Fuc(a1-6)]GlcNAc
In short: as §1

[20] = biological target: Fuc(a1-2)Gal(b1-3)[Fuc(a1-4)]GlcNAc(b1-3)[Fuc(a1-3)[Gal(b1-4)]GlcNAc(b1-6)]Gal(b1-4)Glc
In short: as §1

[21] = biological target: Fuc(a1-2)Gal(b1-3)[Fuc(a1-4)]GlcNAc(b1-3)[Gal(b1-4)GlcNAc(b1-6)]Gal(b1-4)Glc
In short: as §1

[22] = biological target: Fuc(a1-2)Gal(b1-4)Fuc(a1-3)]GlcNAc(b1-2)Man(a1-3)[Fuc(a1-2)Gal(b1-4)[Fuc(a1-3)]GlcNAc(b1-2)Man(a1-6)]Man(b1-4)GlcNAc(b1-4)GlcNAc
In short: as §1

[23] = biological target: Fuc(a1-2)Gal(b1-4)Glc
In short: as §1

[24] = biological target: Fuc(a1-2)Gal(b1-4)Glc6S
In short: as §1

[25] = biological target: Fuc(a1-2)Gal(b1-4)GlcNAc
In short: as §1

[26] = biological target: Fuc(a1-2)Gal(b1-4)GlcNAc(b1-2)Man
In short: as §1

[27] = biological target: Fuc(a1-2)Gal(b1-4)GlcNAc(b1-2)Man(a1-3)[Fuc(a1-2)Gal(b1-4)GlcNAc(b1-2)Man(a1-6)]Man(b1-4)GlcNAc(b1-4)GlcNAc
In short: as §1

[28] = biological target: Fuc(a1-2)Gal(b1-4)GlcNAc(b1-2)Man(a1-3)[Fuc(a1-2)Gal(b1-4)GlcNAc(b1-2)Man(a1-6)]Man(b1-4)GlcNAc(b1-4)[Fuc(a1-6)]GlcNAc
In short: as §1

[29] = biological target: Fuc(a1-2)Gal(b1-4)GlcNAc(b1-2)[Fuc(a1-2)Gal(b1-4)GlcNAc(b1-4)]Man(a1-3)[Fuc(a1-2)Gal(b1-4)GlcNAc(b1-2)Man(a1-6)]Man(b1-4)GlcNAc(b1-4)GlcNAc
In short: as §1

[30] = biological target: Fuc(a1-2)Gal(b1-4)GlcNAc(b1-3)Gal(b1-4)GlcNAc
In short: as §1

[31] = biological target: Fuc(a1-2)Gal(b1-4)GlcNAc(b1-3)Gal(b1-4)GlcNAc(b1-2)Man(a1-3)[Fuc(a1-2)Gal(b1-4)GlcNAc(b1-3)Gal(b1-4)GlcNAc(b1-2)Man(a1-6)]Man(b1-4)GlcNAc(b1-4)GlcNAc
In short: as §1

[32] = biological target: Fuc(a1-2)Gal(b1-4)GlcNAc(b1-3)Gal(b1-4)GlcNAc(b1-3)Gal(b1-4)GlcNAc
In short: as §1

[33] = biological target: Fuc(a1-2)Gal(b1-4)GlcNAc(b1-3)GalNAc
In short: as §1

[34] = biological target: Fuc(a1-2)Gal(b1-4)GlcNAc(b1-3)[Fuc(a1-2)Gal(b1-4)GlcNAc(b1-6)]GalNAc
In short: as §1

[35] = biological target: Fuc(a1-2)Gal(b1-4)GlcNAc(b1-3)[Fuc(a1-3)[Gal(b1-4)]GlcNAc(b1-6)]Gal(b1-4)Glc
In short: as §1

[36] = biological target: Fuc(a1-2)Gal(b1-4)GlcNAc(b1-6)GalNAc
In short: as §1

[37] = biological target: Fuc(a1-2)Gal(b1-4)GlcNAc6S
In short: as §1

[38] = biological target: Fuc(a1-2)Gal(b1-4)[Fuc(a1-3)]GlcNAc
In short: as §1

[39] = biological target: Fuc(a1-2)Gal(b1-4)[Fuc(a1-3)]GlcNAc(b1-2)Man(a1-3)[Fuc(a1-2)Gal(b1-4)[Fuc(a1-3)]GlcNAc(b1-2)Man(a1-6)]Man(b1-4)GlcNAc(b1-4)[Fuc(a1-6)]GlcNAc
In short: as §1

[40] = biological target: Fuc(a1-2)Gal(b1-4)[Fuc(a1-3)]GlcNAc(b1-2)[Fuc(a1-2)Gal(b1-4)[Fuc(a1-3)]GlcNAc(b1-4)]Man(a1-3)[Fuc(a1-2)Gal(b1-4)[Fuc(a1-3)]GlcNAc(b1-2)Man(a1-6)]Man(b1-4)GlcNAc(b1-4)GlcNAc
In short: as §1

[41] = biological target: Fuc(a1-2)Gal(b1-4)[Fuc(a1-3)]GlcNAc(b1-3)Gal(b1-4)[Fuc(a1-3)]GlcNAc
In short: as §1

[42] = biological target: Fuc(a1-2)Gal(b1-4)[Fuc(a1-3)]GlcNAc(b1-3)Gal(b1-4)[Fuc(a1-3)]GlcNAc(b1-3)Gal(b1-4)[Fuc(a1-3)]GlcNAc
In short: as §1

[43] = biological target: Fuc(a1-2)Gal(b1-4)[Fuc(a1-3)]GlcNAc(b1-3)GalNAc
In short: as §1

[44] = biological target: Fuc(a1-2)Gal(b1-4)[Fuc(a1-3)]GlcNAc(b1-3)[Neu5Ac(a2-6)Gal(b1-4)GlcNAc(b1-6)]Gal(b1-4)Glc
In short: as §1

[45] = biological target: Fuc(a1-2)Gal3S(b1-4)GlcNAc
In short: as §1

B1: WGA (Triticum vulgare) (protein)
chain: QRCGEQGSNMECPNNLCCSQYGYCGMGGDYCGKGCQNGACWTSKRCGSQAGGATCPNNHCCSQYGHCGFGAEYCGAGCQGGPCRADIKCGSQSGGKLCPNNLCCSQWGFCGLGSEFCGGGCQSGACSTDKPCGKDAGGRVCTNNYCCSKWGSCGIGPGYCGAGCQSGGCDAVFAGAITANSTLLAE
glycan array binding signal (z-score) [1]: -0.343
glycan array binding signal (z-score) [2]: -0.357
glycan array binding signal (z-score) [3]: -0.359
glycan array binding signal (z-score) [4]: -0.05
glycan array binding signal (z-score) [5]: -0.336
glycan array binding signal (z-score) [6]: -0.36
glycan array binding signal (z-score) [7]: -0.367
glycan array binding signal (z-score) [8]: -0.361
glycan array binding signal (z-score) [9]: -0.02
glycan array binding signal (z-score) [10]: -0.297
glycan array binding signal (z-score) [11]: -0.384
glycan array binding signal (z-score) [12]: -0.341
glycan array binding signal (z-score) [13]: -0.344
glycan array binding signal (z-score) [14]: -0.25
glycan array binding signal (z-score) [15]: -0.342
glycan array binding signal (z-score) [16]: -0.347
glycan array binding signal (z-score) [17]: -0.358
glycan array binding signal (z-score) [18]: -0.244
glycan array binding signal (z-score) [19]: -0.286
glycan array binding signal (z-score) [20]: -0.348
glycan array binding signal (z-score) [21]: -0.249
glycan array binding signal (z-score) [22]: -0.173
glycan array binding signal (z-score) [23]: -0.352
glycan array binding signal (z-score) [24]: -0.356
glycan array binding signal (z-score) [25]: -0.147
glycan array binding signal (z-score) [26]: -0.357
glycan array binding signal (z-score) [27]: -0.197
glycan array binding signal (z-score) [28]: -0.263
glycan array binding signal (z-score) [29]: -0.198
glycan array binding signal (z-score) [30]: 0.147
glycan array binding signal (z-score) [31]: -0.019
glycan array binding signal (z-score) [32]: 0.077
glycan array binding signal (z-score) [33]: -0.334
glycan array binding signal (z-score) [34]: -0.342
glycan array binding signal (z-score) [35]: -0.339
glycan array binding signal (z-score) [36]: -0.277
glycan array binding signal (z-score) [37]: -0.215
glycan array binding signal (z-score) [38]: -0.359
glycan array binding signal (z-score) [39]: -0.297
glycan array binding signal (z-score) [40]: -0.238
glycan array binding signal (z-score) [41]: -0.365
glycan array binding signal (z-score) [42]: -0.336
glycan array binding signal (z-score) [43]: -0.239
glycan array binding signal (z-score) [44]: -0.371
glycan array binding signal (z-score) [45]: -0.346
